This is an account of results in article PMC4336329 (PLoS ONE, 2015).

Among all 310,000 compounds or so, about 14,000 (4.5%) showed an effect of 50% or more. The effect is printed as a negative number. The list shows a part of the results.
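Note: peak tail current of the secondary pulse compared with the same well before compound.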

The target in this assay is human ether-à-go-go-related gene (hERG) potassium channel (human, UniProt Q12809). Briefly: primary screen, population patch clamp on CHO cells stably expressing hERG.
Sequence of human ether-à-go-go-related gene (hERG) potassium channel (Q12809 whole entry, looked up): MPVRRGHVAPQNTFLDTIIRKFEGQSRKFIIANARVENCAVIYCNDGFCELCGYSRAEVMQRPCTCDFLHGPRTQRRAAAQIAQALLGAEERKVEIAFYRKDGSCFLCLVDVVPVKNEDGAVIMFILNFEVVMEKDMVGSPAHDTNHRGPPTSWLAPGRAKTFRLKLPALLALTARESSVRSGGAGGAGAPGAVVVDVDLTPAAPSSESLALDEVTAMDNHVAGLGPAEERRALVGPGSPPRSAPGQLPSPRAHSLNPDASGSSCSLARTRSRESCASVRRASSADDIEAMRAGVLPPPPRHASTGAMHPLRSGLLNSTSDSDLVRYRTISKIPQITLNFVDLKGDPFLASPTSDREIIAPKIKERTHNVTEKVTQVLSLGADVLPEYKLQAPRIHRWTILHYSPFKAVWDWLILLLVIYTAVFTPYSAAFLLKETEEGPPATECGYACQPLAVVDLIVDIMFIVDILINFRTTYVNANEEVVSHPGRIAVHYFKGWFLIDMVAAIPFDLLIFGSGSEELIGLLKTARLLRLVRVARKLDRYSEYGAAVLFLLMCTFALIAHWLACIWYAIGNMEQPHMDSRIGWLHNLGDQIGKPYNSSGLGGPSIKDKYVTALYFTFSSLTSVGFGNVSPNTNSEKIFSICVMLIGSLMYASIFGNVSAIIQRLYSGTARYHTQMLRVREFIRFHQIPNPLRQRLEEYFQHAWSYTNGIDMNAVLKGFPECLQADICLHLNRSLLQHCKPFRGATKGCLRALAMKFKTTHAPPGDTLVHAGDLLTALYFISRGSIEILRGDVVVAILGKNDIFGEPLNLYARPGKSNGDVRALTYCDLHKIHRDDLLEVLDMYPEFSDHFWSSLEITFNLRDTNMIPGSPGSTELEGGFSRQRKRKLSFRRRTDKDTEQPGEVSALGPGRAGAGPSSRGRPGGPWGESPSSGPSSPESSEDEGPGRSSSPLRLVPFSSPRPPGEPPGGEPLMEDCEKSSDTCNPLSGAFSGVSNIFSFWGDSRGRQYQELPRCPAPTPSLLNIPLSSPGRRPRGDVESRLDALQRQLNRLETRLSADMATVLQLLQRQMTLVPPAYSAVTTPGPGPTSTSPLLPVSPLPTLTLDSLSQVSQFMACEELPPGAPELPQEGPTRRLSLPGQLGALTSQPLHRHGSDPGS
Consider `CCOC(=O)c1cc(=O)n2nc(-c3ccccc3F)nc2s1`, for which the “hERG current change (%, negative = inhibition) at 10uM” value turned out to be 1.85%.

As for `CCN(CC)c1ccc(CN2CCCCCC2)cc1`, the “hERG current change (%, negative = inhibition) at 10uM” value is listed as -20.4%.

Turning to `CC(NS(C)(=O)=O)C(c1cccs1)N1CCN(Cc2ccccc2)CC1` (stereo not drawn), the “hERG current change (%, negative = inhibition) at 10uM” value is given as 4.84%.

As to `CC(C)C[C@H](N)c1cn([C@@H](Cc2ccc(O)cc2)C(=O)N2CCNCC2)nn1.Cl`, the “hERG current change (%, negative = inhibition) at 10uM” value was found to be 6.42%.

Turning to `Cc1ccc(SCC(=O)NC(=O)NC(C)C)c(C)c1`, the “hERG current change (%, negative = inhibition) at 10uM” value is listed as -3.77%.

For `C=CCN(CC=C)CCOc1cccc2ccccc12.O=C(O)C(=O)O`, the “hERG current change (%, negative = inhibition) at 10uM” value is listed as 17.1%.

In the case of `CCCCNC(=O)N(O)C1N(/N=C/c2ccccc2OC)C(=S)SC1(C)C` (stereo not drawn), the “hERG current change (%, negative = inhibition) at 10uM” value is recorded as -8.05%.

For the compound `Cc1nnc(SCC(=O)Nc2ccc(F)cc2)n(N)c1=O`, the “hERG current change (%, negative = inhibition) at 10uM” value amounted to 6.78%.

In the case of `COC(=O)c1cccc(NC(=S)N2CCN(c3ccccc3F)CC2)c1`, the “hERG current change (%, negative = inhibition) at 10uM” value is listed as 5.71%.

On to `Cc1ccc(-c2nc3ccccc3c(=O)n2-c2ccncc2)cc1`, for which the “hERG current change (%, negative = inhibition) at 10uM” value is given as 0.789%.

For `CCC(C)C(NC(=O)c1ccc(Cl)cc1)C(=O)O` (stereo not drawn), the “hERG current change (%, negative = inhibition) at 10uM” value is recorded as 17%.

On to `COc1ccccc1NC(=O)c1[nH]c(C)c(C(C)=O)c1C`, for which the “hERG current change (%, negative = inhibition) at 10uM” value turned out to be 7.16%.

Take `COc1ccc(NS(=O)(=O)c2cc(NC(=O)Cc3cccs3)ccc2C)cc1`: the “hERG current change (%, negative = inhibition) at 10uM” value was 2.08%.

With `Cc1cccc(C)c1NC(=S)NCCc1ccc(O)c(O)c1`, the “hERG current change (%, negative = inhibition) at 10uM” value is 12.8%.

Take `c1ccc(Cn2nnc3c(Nc4ccc5c(c4)OCO5)nc(C4CC4)nc32)cc1`: the “hERG current change (%, negative = inhibition) at 10uM” value is 1.05%.

Turning to `OC(CNCCc1c[nH]c2ccccc12)c1ccccc1` (stereo not drawn), the “hERG current change (%, negative = inhibition) at 10uM” value is recorded as -13.5%.

As for `CC(=O)Nc1ccc(S(=O)(=O)N(C)CC(=O)N/N=C/c2cccc(O)c2)cc1`, the “hERG current change (%, negative = inhibition) at 10uM” value is 17.6%.

For the compound `O=S(=O)(/C=C/c1ccccc1)N1CCN(c2ccccc2)CC1`, the “hERG current change (%, negative = inhibition) at 10uM” value is on record as -2.08%.

As for `CCOc1ccccc1OCC(=O)Nc1nc2ccccc2[nH]1`, the “hERG current change (%, negative = inhibition) at 10uM” value was found to be 36.8%.

In the case of `COCCOC1CCN(C(=O)c2cc(COc3ccc(F)cc3F)on2)CC1`, the “hERG current change (%, negative = inhibition) at 10uM” value came to 2.54%.

For `Cc1nc(NC(=O)c2oc3ccccc3c2C)sc1C(=O)N(C)C`, the “hERG current change (%, negative = inhibition) at 10uM” value is reported as -4.58%.

With `O=C(COc1ccc(C(=O)c2ccccc2)cc1)NCc1ccc(F)cc1`, the “hERG current change (%, negative = inhibition) at 10uM” value was -6.64%.

For `COc1ccc(CNc2ncc(-c3ccc(F)cc3)n2C)cc1OC.O=C(O)C(=O)O`, the “hERG current change (%, negative = inhibition) at 10uM” value was -65.2%.

For `CC(C)c1cc(C(=O)O)n[nH]1`, the “hERG current change (%, negative = inhibition) at 10uM” value is recorded as 20.3%.

For `C=CCOC(=O)C1=C(C)NC(C)=C(C(=O)OCC=C)C1c1ccco1`, the “hERG current change (%, negative = inhibition) at 10uM” value was -7.11%.

In the case of `CCN(CC(=O)Nc1c(F)cccc1F)C(=O)c1cccc(S(=O)(=O)NCc2ccccc2)c1`, the “hERG current change (%, negative = inhibition) at 10uM” value is -15.5%.

On to `COc1ccc(S(=O)(=O)n2nc(OC(C)=O)cc2N(C(C)=O)C(C)=O)cc1`, for which the “hERG current change (%, negative = inhibition) at 10uM” value is on record as -3.25%.

With `COCCCNc1nc2c(c(=O)n(Cc3ccc(F)cc3)c(=O)n2C)n1C`, the “hERG current change (%, negative = inhibition) at 10uM” value is on record as -11.7%.

Turning to `CCCn1c(N)c(N(CCOC)C(=O)c2cc(-c3ccco3)nc3ccccc23)c(=O)[nH]c1=O`, the “hERG current change (%, negative = inhibition) at 10uM” value came to 14.8%.

For `CCOc1ccccc1C(=O)NC(C(=O)OCC(=O)Nc1nnc(-c2ccccc2)o1)C(C)C` (stereo not drawn), the “hERG current change (%, negative = inhibition) at 10uM” value is listed as -24.4%.

Turning to `Cc1ccnc(NS(=O)(=O)c2ccc3c(c2)CCO3)c1`, the “hERG current change (%, negative = inhibition) at 10uM” value worked out at 12.3%.

Regarding `CN1CCN(c2ccccc2NC(=O)c2ccc(N3CCCC3)c([N+](=O)[O-])c2)CC1`, the “hERG current change (%, negative = inhibition) at 10uM” value is listed as -48.5%.

For `COc1ccc(C(=O)NCCn2ccc3ccccc32)cc1OC`, the “hERG current change (%, negative = inhibition) at 10uM” value is listed as -2.74%.

`Cc1ccc(CN(C(=O)c2ccccc2[N+](=O)[O-])C2CCS(=O)(=O)C2)o1` (stereo not drawn): the “hERG current change (%, negative = inhibition) at 10uM” value amounted to 13.1%.

In the case of `COc1cc(-n2nc(C)c3c2OC(N)=C(C#N)C3c2ccccc2)c(Cl)c(Br)c1O` (stereo not drawn), the “hERG current change (%, negative = inhibition) at 10uM” value is given as 0.576%.

`COc1ccc(/C=C/CN2CCCC(CO)(Cc3cccc(Cl)c3)C2)cc1` (stereo not drawn): the “hERG current change (%, negative = inhibition) at 10uM” value is on record as -50.8%.

As for `Cc1cc(NC(=O)CCC(=O)N(CCC(C)C)CC(=O)NCC2CCCO2)no1` (stereo not drawn), the “hERG current change (%, negative = inhibition) at 10uM” value came out at 11.2%.

For `O=C(O)CC(NC(=O)C1CCCCC1)c1cc([N+](=O)[O-])ccc1Cl` (stereo not drawn), the “hERG current change (%, negative = inhibition) at 10uM” value was -0.243%.

`CN(C)P(=NC(=S)c1cccn1C)(N(C)C)N(C)C`: the “hERG current change (%, negative = inhibition) at 10uM” value was 16.4%.

Consider `O=C(Cc1ccc(Br)cc1)NCCc1ccccc1`, for which the “hERG current change (%, negative = inhibition) at 10uM” value is on record as 13.2%.

As to `COc1ccc(/C=N/NC(=S)SC)cc1OC`, the “hERG current change (%, negative = inhibition) at 10uM” value amounted to 0.682%.

Regarding `COC(=O)Cn1c(=O)c2c(n(Cc3ccccc3)c1=O)N/C(=C/c1ccc(Br)cc1)C2=O`, the “hERG current change (%, negative = inhibition) at 10uM” value is given as 7.03%.

`CC(c1ccccc1)n1c(-c2ccccc2F)n[nH]c1=S` (stereo not drawn): the “hERG current change (%, negative = inhibition) at 10uM” value is -11.9%.

For `COc1ccc(CNC(=O)C2CCCN2S(=O)(=O)c2ccc(F)cc2)cc1` (stereo not drawn), the “hERG current change (%, negative = inhibition) at 10uM” value is reported as -1.3%.

Consider `Cc1ccc(NC(=O)CSc2ncccn2)cc1S(=O)(=O)N1CCCCC1`, for which the “hERG current change (%, negative = inhibition) at 10uM” value is on record as -27.5%.

Consider `CCOC(=O)CC1ON(C)C(=O)N1c1ccc([N+](=O)[O-])cc1` (stereo not drawn), for which the “hERG current change (%, negative = inhibition) at 10uM” value is listed as -6.46%.

On to `O=S(=O)(NC(=S)Nc1ccccc1)c1ccc(F)cc1`, for which the “hERG current change (%, negative = inhibition) at 10uM” value is listed as 15%.

Take `COc1ccc(-c2nc(SCC(=O)N3CCCC3)n[nH]2)cc1`: the “hERG current change (%, negative = inhibition) at 10uM” value is on record as 14.2%.

As for `COCCn1c(C(C)C)nc2oc3ccccc3c(=O)c2c1=O`, the “hERG current change (%, negative = inhibition) at 10uM” value stood at 3.05%.

In the case of `Cc1ccc(S(=O)(=O)Nc2ccnc(-c3cccnc3)n2)cc1`, the “hERG current change (%, negative = inhibition) at 10uM” value was 12.7%.

For `CN(C)/C=C(\C(=O)c1ccc(F)cc1F)c1nnnn1-c1ccccc1`, the “hERG current change (%, negative = inhibition) at 10uM” value was 21.1%.

In the case of `O=C(Nc1ccc(Cc2ccncc2)cc1)c1ccc(Br)o1`, the “hERG current change (%, negative = inhibition) at 10uM” value was -35.8%.

On to `CCOc1ccc(C2CC(c3cccc(OC)c3)n3nc(N)nc3N2)cc1` (stereo not drawn), for which the “hERG current change (%, negative = inhibition) at 10uM” value was 7.43%.

`O=C(Cn1nnc(-c2cccc(C(F)(F)F)c2)n1)NNS(=O)(=O)c1cccc(C(F)(F)F)c1`: the “hERG current change (%, negative = inhibition) at 10uM” value amounted to 9.57%.

Consider `CC(CCc1ccc(O)cc1)NCc1ccc(Cl)cc1Cl` (stereo not drawn), for which the “hERG current change (%, negative = inhibition) at 10uM” value is -63.8%.

As for `CCn1cc(C2=NC(CCSC)CO2)c2ccccc21` (stereo not drawn), the “hERG current change (%, negative = inhibition) at 10uM” value is -9.46%.

In the case of `CCOCC(=O)Nc1nc(C)cc(C)n1`, the “hERG current change (%, negative = inhibition) at 10uM” value was 21.1%.
